Here are results for 1 molecule from patent US6545128 (BURNHAM INSTITUTE, dated 2003).

For the test, the target named is T1, 35S-labeled in vitro translated HA-tagged BI-2 (human, UniProt Q9NZS9 1-450, 35S-labeled methionine (in vitro translation)).
T1 construct: Made by TNT rabbit reticulocyte in vitro transcription/translation; also called HA-BI-2; not shown: three copies of the HA tag at the N-terminus (vector pSN503)
T1 sequence: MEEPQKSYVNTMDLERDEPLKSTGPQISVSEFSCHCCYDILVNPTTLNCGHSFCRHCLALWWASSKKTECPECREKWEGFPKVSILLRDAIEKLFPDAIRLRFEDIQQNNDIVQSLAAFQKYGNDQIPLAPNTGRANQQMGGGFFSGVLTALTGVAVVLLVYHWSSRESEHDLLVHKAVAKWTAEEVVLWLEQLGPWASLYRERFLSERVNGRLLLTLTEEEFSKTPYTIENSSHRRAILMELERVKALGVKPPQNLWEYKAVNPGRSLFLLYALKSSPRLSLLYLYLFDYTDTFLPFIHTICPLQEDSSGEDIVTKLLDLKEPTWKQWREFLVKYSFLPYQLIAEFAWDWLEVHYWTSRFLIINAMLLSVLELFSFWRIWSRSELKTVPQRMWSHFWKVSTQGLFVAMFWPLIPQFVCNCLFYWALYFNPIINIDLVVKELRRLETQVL
The test is described as follows: GST pull-down: about 5 ug GST protein on glutathione SEPHAROSE, 35S-labeled in vitro translated HA-BI-2, SDS-PAGE and autoradiography. The method, then: Approximately 5 µg of the following fusion proteins, including GST control, GST-CD40 cytosolic domain, GST-Bcl-2, GST-Bax or GST-BI-2, were immobilized on glutathione SEPHAROSE, then 8 µl of ^35S-labeled in vitro translated HA-tagged BI-2 in binding buffer was added. After incubation at 4° C. for 2 hr, the beads were washed 5× with binding buffer and the associated proteins were eluted in Laemli sample buffer and analyzed by SDS-PAGE (10% gel). As a control, ^35S-labeled BI-2 was loaded directly into the gel, using one-quarter the amount employed for the binding experiments. Following electrophoresis, the gels were dried and exposed to X-ray film.

B1: GST control (other)
chain: not shown
notes: Control, immobilized on glutathione SEPHAROSE
Regarding B1, the binding result is listed as “no binding”.
